# Values joined by “and” are separate entries in the source; they are usually repeats but may differ in a detail not shown here. Identical values can stand only once. In all, about 270,000 compounds went through this assay and about 5,800 (2.1%) were called active. The inconclusive results got no clear call from the source; some entries with a clear call stand among them for comparison. The call rests on the fitted dose curve; in most records, active means well fitted inhibition curve with a large enough effect; inconclusive means small, poorly fitted or top-dose-only effect; inactive means flat fitted curve, though single readings scatter. Where the call is inconclusive, the potency comes from a doubtful curve fit.
# Target: Microtubule-associated protein tau (Homo sapiens) (UniProt P10636)
# Assay: qHTS for Inhibitors of Tau Fibril Formation, Thioflavin T Binding; further: nearly all actives have a fitted effect of over 55% in size
# Conditions: recombinant tau K18 P301L (four-repeat tau fragment), heparin-induced fibrillization, ThT fluorescence; series mostly up to 57.4 µM; activity, negative = inhibition: at the top concentration
# Procedure, shortened: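 Recombinant human tau K18 fragment […] carrying P301L, 15 uM unlabeled plus 0.24 uM Alexa 594-labeled, was fibrillized with 20 uM heparin in 100 mM sodium acetate pH 7 for 6 hr at 37 C; 30 uM ThT fluorescence read after 1 hr.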
# On the % scale 0 is the no-effect control and ±100 the full control effect; potency means the concentration at half of the fitted maximal effect; tags describe the fitted curve by direction and shape.
# UniProt P10636, sequence (P10636 whole entry, looked up): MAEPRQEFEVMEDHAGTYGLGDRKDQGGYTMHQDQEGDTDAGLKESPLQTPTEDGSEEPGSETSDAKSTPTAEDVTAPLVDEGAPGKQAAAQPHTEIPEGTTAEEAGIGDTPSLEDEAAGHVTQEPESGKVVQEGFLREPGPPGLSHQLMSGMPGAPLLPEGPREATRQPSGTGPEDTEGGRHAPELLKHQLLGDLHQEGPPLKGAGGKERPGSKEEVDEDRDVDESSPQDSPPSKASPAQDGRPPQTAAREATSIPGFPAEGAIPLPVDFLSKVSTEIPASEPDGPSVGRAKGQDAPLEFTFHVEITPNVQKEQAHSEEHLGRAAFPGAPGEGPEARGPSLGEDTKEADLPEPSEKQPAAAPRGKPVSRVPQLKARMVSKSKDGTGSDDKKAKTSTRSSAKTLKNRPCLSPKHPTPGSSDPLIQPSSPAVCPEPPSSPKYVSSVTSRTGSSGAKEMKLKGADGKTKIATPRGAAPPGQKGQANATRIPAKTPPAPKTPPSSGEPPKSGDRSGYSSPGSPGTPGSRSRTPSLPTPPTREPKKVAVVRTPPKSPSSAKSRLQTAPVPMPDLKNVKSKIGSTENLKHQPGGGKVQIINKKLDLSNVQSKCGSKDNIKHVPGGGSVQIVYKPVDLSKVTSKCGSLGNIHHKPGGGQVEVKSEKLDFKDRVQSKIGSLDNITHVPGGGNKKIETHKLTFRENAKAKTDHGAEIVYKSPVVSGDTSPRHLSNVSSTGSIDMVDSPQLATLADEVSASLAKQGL
Structure (SMILES),Potency,"activity, negative = inhibition"
O=C(CSc1ccc([N+](=O)[O-])cc1)Nc1cccc(S(=O)(=O)Nc2ccccc2F)c1,"inconclusive: 39.8 µM [inhibitor, single point]",–
COc1ccc(-c2cc(=O)c3ccccc3o2)cc1,"inconclusive: 12.6 µM [inhibitor, partial curve, poor fit] and inconclusive: 2.82 µM [inhibitor, partial curve, poor fit]",–
Cc1ccccc1C1C2=C(Nc3[nH]n(-c4ccccc4)c(=O)c31)c1ccccc1C2=O (configuration not stated),active: 14.1 µM,–
CCOc1ccc(/C(O)=C2/C(=O)C(=O)N(CCCn3ccnc3)C2c2cccs2)cc1Cl (configuration not stated),"inconclusive: 25.1 µM [inhibitor, single point]",–
Cc1sc(C2C(C#N)=C(N)N(c3cccc(Cl)c3)C3=C2C(=O)CCC3)cc1CN1CCOCC1 (configuration not stated),"inconclusive: 20 µM [inhibitor, partial curve]",–
COC(=O)c1cc(C(=O)OC)cc(N2C(=O)CC(Sc3nc(C)cc(C)n3)C2=O)c1 (configuration not stated),–,inactive: -3%
Cc1ccc(CNC(=O)c2cc(S(=O)(=O)N3CCCC(C)C3)cn2C)cc1 (configuration not stated),–,inactive: -0.828%
O=C(Nc1ccccc1C(=O)O)c1ccc2ccccc2n1,–,inactive: 9.92%
N#C/C(=C\c1ccc(OCc2ccccc2)cc1)C(=O)Nc1nc2c(s1)CCN(Cc1ccccc1)C2,"inconclusive: 3.98 µM [inhibitor, full curve]",–
Cc1cc2c(n1-c1ccc(C(=O)NCC(C)c3ccccc3)cc1)CCCC2 (configuration not stated),"inconclusive: 31.6 µM [inhibitor, single point]",–
Cc1cccc(N2CCN(C(=O)c3cccc(N4C(=O)C5CC=CC(C)C5C4=O)c3)CC2)c1C (configuration not stated),"inconclusive: 35.5 µM [inhibitor, partial curve]",–
Cc1ccc(S(=O)(=O)N(CC(=O)N/N=C/c2ccccc2C(=O)O)c2cc(Cl)cc(Cl)c2)cc1,"inconclusive: 31.6 µM [inhibitor, single point]",–
CC(=O)[C@H]1CCC2C3CC=C4C[C@@H](OS(=O)(=O)O)CC[C@]4(C)C3CC[C@@]21C (some centres not stated),–,inactive: -12.3%
CC(C)CCNC(=O)c1ccc(Cn2c(=O)c3cccn3c3cccnc32)cc1,–,inactive: 2.53%
Cc1ccccc1Nc1c(-c2cccc(O)c2)nc2ccc(Br)cn12,–,inactive: -4.32%
CCOC(=O)c1c(C=O)c(C)n(Cc2ccc(Cl)cc2)c1C,"inconclusive: 35.5 µM [inhibitor, single point]",–

Structure (SMILES),Potency,"activity, negative = inhibition"
COc1ccc(NC2=C(NCCO)C(=O)c3ccccc3C2=O)cc1,active: 12.6 µM,–
CCN(CC)c1ccc(NC(=O)COc2ccc(C#N)cc2)cc1S(=O)(=O)Nc1ccc(OC)cc1,–,inactive: 5.55%
NC(=S)N=Nc1c(O)n(C2OC(=O)c3ccccc32)c2ccccc12 (configuration not stated),"inconclusive: 22.4 µM [inhibitor, partial curve]",–
COc1ccc(/C=N/NC(=O)c2cc(C34CC5CC(CC(C5)C3)C4)[nH]n2)cc1O,"inconclusive: 14.1 µM [inhibitor, partial curve]",–
O=c1c2cc(Br)cc(Br)c2oc2nc3n(c(=O)c12)CCCS3,"inconclusive: 17.8 µM [inhibitor, partial curve]",–
CC(=O)c1cc(OC(=O)c2ccncc2)ccc1OC(=O)c1ccncc1,"inconclusive: 14.1 µM [inhibitor, partial curve]",–
O=S(=O)(NCc1ccc(F)cc1)c1ccc2[nH]c3c(c2c1)CCCCC3,–,inactive: -1.43%
CN(CCO)c1cc(N2CCC3(CC2)OCCO3)c2nonc2c1[N+](=O)[O-],"inconclusive: 28.2 µM [inhibitor, single point]",–
CCn1c(/C=C/c2ccc([N+](=O)[O-])o2)nc2ccccc2c1=O,"inconclusive: 22.4 µM [inhibitor, partial curve]",–
CC(=O)c1cccc(NC(=O)N2CCC(c3ccc(C)cc3)C2)c1 (configuration not stated),"inconclusive: 7.94 µM [inhibitor, partial curve]",–
CCc1nn2c(-c3ccco3)ccnc2c1-c1ccc(F)cc1,"inconclusive: 8.91 µM [inhibitor, full curve, poor fit]",–
C#CCSc1nc2sc3c(c2c(=O)n1-c1cccc(OC)c1)CCN(C(C)=O)C3,active: 25.1 µM,–
O=C(N/N=C/c1cn(Cc2ccccc2)c2ccccc12)c1ccncc1,"inconclusive: 35.5 µM [inhibitor, single point]",–
CCOC(=O)c1c(NC(=O)c2ccccc2Cl)sc2c1CCc1ccccc1-2,"inconclusive: 39.8 µM [inhibitor, single point]",–
CC1CCCN(C(=S)Nc2ccc(Nc3ccccc3)cc2)C1 (configuration not stated),"inconclusive: 11.2 µM [inhibitor, partial curve]",–
CCOc1cccc(C(=O)Nc2ccc3oc(-c4ccc(C(C)(C)C)cc4)nc3c2)c1,"inconclusive: 20 µM [activator, single point]",–
